# Assay results from the supplement of paper PMC7826260.
# The list shows a part of the results. One pool of 16,384 single-stranded DNAs met each Rep nickase domain in vitro for 1 h at 37 °C with 3 µM enzyme; only the middle of the 90-letter strands is printed. The score is log2 (uncut reads / reads without enzyme); uncut sequences lie near 0, cut ones below; no hit call is given. Reads are scaled to the total; where an enzyme cuts many sequences, the uncut ones exceed 0.
# Tests used:
# Experiment in all cases: uncleaved DNA left, log2 of reads against the no-enzyme library (log2 ratio); higher = less cleavage (more negative = more Rep cleavage of the k-mer); sequences stand for … in CTCGTCCG…ACCGGAGA
# [1] = system: T1, Rep nickase domain of Muscovy duck circovirus
# T1 sequence (protein, residues 1-111, tag omitted): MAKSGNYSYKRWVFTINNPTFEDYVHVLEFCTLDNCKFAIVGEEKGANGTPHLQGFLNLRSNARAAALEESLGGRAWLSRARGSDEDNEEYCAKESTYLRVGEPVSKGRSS
# Method: (§1)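 A pool of 90-nt single-stranded DNAs with seven random bases just before the constant AC of the nick site (name = the seven bases) was cut by 3 µM recombinant His6-SUMO-tagged Rep nickase domain (300 nM DNA, 50 mM HEPES pH 8.0, 50 mM NaCl, 1 mM MnCl2, 1 h, 37 °C, three replicates). Uncut DNA was amplified and sequenced.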
# [2] = system: T2, Rep nickase domain of banana bunchy top virus
# T2 sequence (protein, residues 1-94, tag omitted): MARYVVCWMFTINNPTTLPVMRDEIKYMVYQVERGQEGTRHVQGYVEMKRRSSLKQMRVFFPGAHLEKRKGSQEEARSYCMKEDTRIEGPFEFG
# Method: as §1
# [3] = system: T3, Rep nickase domain of cabbage leaf curl virus
# T3 sequence (protein, residues 1-116, tag omitted): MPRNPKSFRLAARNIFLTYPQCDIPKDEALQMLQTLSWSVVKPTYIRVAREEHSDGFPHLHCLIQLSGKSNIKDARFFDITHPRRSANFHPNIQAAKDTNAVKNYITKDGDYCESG
# Method: as §1
# [4] = system: T4, Rep nickase domain of chickpea chlorotic dwarf virus
# T4 sequence (protein, residues 1-124, tag omitted): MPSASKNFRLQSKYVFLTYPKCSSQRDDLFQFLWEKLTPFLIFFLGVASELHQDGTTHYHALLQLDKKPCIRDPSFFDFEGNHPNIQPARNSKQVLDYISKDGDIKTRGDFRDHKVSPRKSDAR
# Method: as §1
# [5] = system: T5, Rep nickase domain of faba bean necrotic yellows virus
# T5 sequence (protein, residues 1-98, tag omitted): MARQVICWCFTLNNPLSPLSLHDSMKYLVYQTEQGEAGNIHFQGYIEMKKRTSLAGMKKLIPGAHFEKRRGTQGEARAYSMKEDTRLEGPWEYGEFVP
# Method: as §1
# [6] = system: T6, Rep nickase domain of maize striate mosaic virus
# T6 sequence (protein, residues 1-117, tag omitted): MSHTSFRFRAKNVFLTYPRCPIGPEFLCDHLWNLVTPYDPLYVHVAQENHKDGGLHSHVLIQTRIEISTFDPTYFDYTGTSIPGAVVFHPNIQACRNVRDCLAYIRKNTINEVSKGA
# Method: as §1
# [7] = system: T7, Rep nickase domain of porcine circovirus 2
# T7 sequence (protein, residues 2-116, tag omitted): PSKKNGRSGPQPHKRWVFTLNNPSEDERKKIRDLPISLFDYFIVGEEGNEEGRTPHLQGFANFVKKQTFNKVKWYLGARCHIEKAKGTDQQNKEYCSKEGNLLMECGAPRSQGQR
# Method: as §1
# [8] = system: T8, Rep nickase domain of tomato yellow leaf curl virus
# T8 sequence (protein, residues 1-136, tag omitted): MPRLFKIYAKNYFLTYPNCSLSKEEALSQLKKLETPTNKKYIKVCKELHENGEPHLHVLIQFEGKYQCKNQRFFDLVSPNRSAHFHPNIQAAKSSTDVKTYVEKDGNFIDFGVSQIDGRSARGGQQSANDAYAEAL
# Method: as §1
# [9] = system: T9, Rep nickase domain of wheat dwarf virus
# T9 sequence (protein, residues 1-137, tag omitted): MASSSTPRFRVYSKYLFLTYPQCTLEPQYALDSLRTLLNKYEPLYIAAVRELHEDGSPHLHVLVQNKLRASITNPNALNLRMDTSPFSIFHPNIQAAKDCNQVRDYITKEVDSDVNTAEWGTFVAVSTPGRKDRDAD
# Method: as §1
Sequence,uncleaved DNA left (log2) [1],uncleaved DNA left (log2) [2],uncleaved DNA left (log2) [3],uncleaved DNA left (log2) [4],uncleaved DNA left (log2) [5],uncleaved DNA left (log2) [6],uncleaved DNA left (log2) [7],uncleaved DNA left (log2) [8],uncleaved DNA left (log2) [9]
CGAAGGG,0.039,0.0376,-0.028,0.341,-0.0944,-0.332,0.188,-0.0195,-0.0414
TAGATGA,0.152,0.106,0.238,0.379,0.14,0.609,-0.0612,0.0412,0.0856
GTCGCAG,0.0953,0.21,0.409,0.931,-0.021,1.84,0.339,0.136,0.167
ATGTTAC,-2.66,-0.119,-1.51,-2.6,-0.0742,-1.31,-2.43,-0.0221,-0.422
AAGATTG,-0.0676,-0.005,0.0142,0.687,0.0232,1.18,0.164,-0.133,0.00831
GATACTT,-0.051,-1.37,0.161,-0.795,0.0971,0.89,-1.46,0.104,0.201
GTGCTCG,0.11,-0.104,-0.396,-0.362,-0.113,-0.566,0.0568,-0.0173,-0.0357
AGGTTTG,-0.111,-0.145,-0.208,-0.145,-0.0421,-0.408,-0.0554,-0.104,-0.105
CGAGTTT,0.00151,-0.0443,-0.068,-1.35,-0.0783,-0.129,-0.257,0.0481,-0.106
CGGAGCA,0.0741,0.171,0.355,0.892,-0.0139,0.691,-0.608,0.144,0.151
GTGCTAA,0.0719,0.0344,0.307,0.951,0.000301,1.63,0.028,0.0296,0.0174
CGCTCCT,-0.304,-0.00396,-0.0993,-1.23,-0.102,0.0323,-0.947,-0.000502,-0.0436
TTCTGCC,0.0624,0.0144,-0.12,-0.601,0.0892,-0.939,0.0733,0.0188,-0.0627
TTTACGA,-0.0254,0.00756,0.155,-0.312,0.0672,0.028,0.0512,0.00464,-0.0467
TTCACGG,-0.157,-0.0305,0.499,1.53,-0.106,2.11,-0.00988,-0.135,0.0147
CCTTTAT,-0.268,-0.146,-0.0832,-1.07,-0.0696,-0.692,-1.15,0.127,-0.0219
GCACTAA,-0.163,0.000338,-0.122,0.188,-0.0863,0.0349,0.00402,-0.087,-0.0187
AGGCTTT,0.0293,0.0878,0.372,-0.448,0.117,0.926,-0.0535,0.179,0.157
GGATACG,0.0935,-0.054,-0.366,-0.0773,0.0189,-0.552,0.209,-0.082,-0.0357
TAGGCGA,0.068,-0.0615,-0.513,-0.695,0.153,-1.11,0.113,0.0527,-0.106

Sequence,uncleaved DNA left (log2) [1],uncleaved DNA left (log2) [2],uncleaved DNA left (log2) [3],uncleaved DNA left (log2) [4],uncleaved DNA left (log2) [5],uncleaved DNA left (log2) [6],uncleaved DNA left (log2) [7],uncleaved DNA left (log2) [8],uncleaved DNA left (log2) [9]
CACTCAT,-0.186,-0.952,-0.115,-2.52,0.144,-0.703,-3.54,0.0465,0.0331
AGACTGA,-0.00195,0.000643,0.0481,0.769,-0.0157,1.66,0.0396,-0.0506,0.00635
CCATTCT,-1.32,0.0411,-0.493,-1.97,0.044,-1.15,-1.11,0.0731,-0.0895
ATCTTTT,-3.26,-1.1,-0.475,-2.38,-0.141,-0.941,-3.69,-0.154,-0.128
CCACAAA,0.0102,-0.0578,-0.0256,-0.41,-0.0169,-0.577,-0.0113,-0.067,-0.117
TCGCGGT,-0.0286,-0.0712,-0.166,-0.271,-0.175,-0.288,-0.0887,-0.0408,-0.0549
CAAGGCG,0.0797,0.067,-0.663,0.297,0.128,-0.488,0.265,0.0923,-0.0646
CTCGCGC,-0.0604,-0.0685,-0.781,-0.729,0.00605,-0.924,0.165,0.0452,-0.104
TGGTCAC,0.0438,0.0646,0.464,1.18,-0.0117,1.79,0.0752,0.0668,0.14
GCTGTGG,-0.0603,0.0401,-0.198,-0.114,-0.0286,-0.779,0.0635,0.0419,-0.056
TAGCCCG,0.0358,-0.0938,-0.763,-0.343,0.00656,-1.08,-0.257,0.0578,-0.174
GGCTTGA,-0.00348,-0.0477,0.238,0.812,-0.02,1.59,0.00225,-0.0714,0.0021
TTGATCA,0.16,0.2,0.445,0.225,0.105,0.639,0.0452,0.167,0.149
CCGTAGA,-0.0212,0.0806,0.227,0.276,0.0156,-0.503,0.0431,0.0706,0.143
GATAACG,0.154,0.0352,-0.753,-0.488,0.151,-0.919,0.212,0.0457,-0.095
CAAAAAC,-0.175,-0.0344,-0.248,-0.569,0.00919,-0.875,0.0292,-0.18,-0.0971
CTCGACC,-0.0571,-0.0593,-0.109,-0.156,-0.029,-0.553,-0.169,0.00602,-0.139
AGGCAAT,0.0368,0.125,0.363,1.37,-0.00508,1.53,0.0581,-0.023,0.146
CGCTGAA,-0.0118,-0.199,0.0484,0.378,-0.12,0.731,-0.121,-0.0441,-0.00815
TAGTAAT,-3.47,-3.41,-2.73,-2.59,-3.12,-0.0209,-4.13,0.123,-0.81

Sequence,uncleaved DNA left (log2) [1],uncleaved DNA left (log2) [2],uncleaved DNA left (log2) [3],uncleaved DNA left (log2) [4],uncleaved DNA left (log2) [5],uncleaved DNA left (log2) [6],uncleaved DNA left (log2) [7],uncleaved DNA left (log2) [8],uncleaved DNA left (log2) [9]
AGCGGTA,-0.0153,0.16,0.121,0.318,0.0822,0.805,-1.15,0.165,0.0486
TGAGAAA,0.236,0.313,0.46,0.363,0.218,0.188,0.219,0.156,0.176
TATCGAA,-0.108,-0.0853,-0.0178,-0.67,-0.142,-0.895,-0.152,-0.0382,-0.106
CTATAGG,0.179,0.143,0.223,1.13,0.0608,0.623,0.231,0.0254,0.156
AAGGCAG,0.0411,0.175,-0.356,-0.067,0.0249,-0.578,0.368,0.0914,0.104
ACCAATA,-0.0421,0.0215,-0.248,-1.37,0.00458,-1.07,0.00795,-0.0994,-0.0386
AAGCGTG,0.0861,0.0569,0.0445,0.495,0.0537,0.447,0.171,0.0171,0.11
TGTATTT,0.0278,-0.0312,0.294,-0.841,0.0375,0.838,-1.33,0.113,0.0333
CGCTACT,-2.77,-0.213,-0.24,-2.23,0.0623,-0.0967,-3.14,-0.14,-0.0848
ATATAAA,-0.0415,-0.155,-0.148,-0.195,-0.048,-0.696,0.0027,-0.117,0.0884
ACCAGAT,0.0202,0.024,0.14,0.468,0.00285,-0.0467,0.0765,-0.0305,-0.0713
GGGATGC,0.0679,0.127,0.741,1.93,0.00121,2.16,0.178,0.0347,0.0511
TTTGTTG,0.0735,-0.0565,-0.688,-0.799,0.00529,-1.26,0.0725,0.000765,-0.198
AACACGC,-0.00835,-0.0601,-0.449,-0.668,0.0209,-1.06,0.0135,-0.13,-0.0724
ACATGCT,-0.473,-0.148,-0.838,-1.42,0.011,-0.963,-0.735,-0.0137,-0.176
CCGGTTA,-0.00866,0.0207,0.0661,-0.0634,-0.0818,0.874,0.0253,-0.0824,-0.209
TGTTAAT,-3.1,-0.122,0.132,-0.174,-0.00864,0.598,-3.05,0.207,-0.0302
CCAATAC,0.0364,0.137,-0.0548,-0.667,0.0286,-0.777,0.126,0.0632,0.0309
CAGTCTA,-0.127,-0.512,-0.362,-2.38,-0.566,-0.577,-2.87,-0.0899,-0.335
GAAGCCG,0.0565,-0.0222,-0.726,-0.423,0.0879,-0.827,0.106,-0.0103,-0.0748
